The target in the assay is T1, native mGluR5 in detergent extracts of rat hippocampus (rat, UniProt P31424 21-1203, limits assumed).
T1 construct: domain: native protein in detergent extract of hippocampus; About 140 kDa band, doublet in hippocampus; also called type 5 metabotropic glutamate receptor
Kind of assay: GST affinity column loaded with hippocampal extract, immunoblot for mGluR5. The procedure: For example, the bacterially expressed GST-Homer fusion protein was tested for binding to native mGluR5 in detergent extracts of hippocampus in an in vitro binding assay as detailed in Example 7A.

T1 sequence (P31424 21-1203 limits assumed): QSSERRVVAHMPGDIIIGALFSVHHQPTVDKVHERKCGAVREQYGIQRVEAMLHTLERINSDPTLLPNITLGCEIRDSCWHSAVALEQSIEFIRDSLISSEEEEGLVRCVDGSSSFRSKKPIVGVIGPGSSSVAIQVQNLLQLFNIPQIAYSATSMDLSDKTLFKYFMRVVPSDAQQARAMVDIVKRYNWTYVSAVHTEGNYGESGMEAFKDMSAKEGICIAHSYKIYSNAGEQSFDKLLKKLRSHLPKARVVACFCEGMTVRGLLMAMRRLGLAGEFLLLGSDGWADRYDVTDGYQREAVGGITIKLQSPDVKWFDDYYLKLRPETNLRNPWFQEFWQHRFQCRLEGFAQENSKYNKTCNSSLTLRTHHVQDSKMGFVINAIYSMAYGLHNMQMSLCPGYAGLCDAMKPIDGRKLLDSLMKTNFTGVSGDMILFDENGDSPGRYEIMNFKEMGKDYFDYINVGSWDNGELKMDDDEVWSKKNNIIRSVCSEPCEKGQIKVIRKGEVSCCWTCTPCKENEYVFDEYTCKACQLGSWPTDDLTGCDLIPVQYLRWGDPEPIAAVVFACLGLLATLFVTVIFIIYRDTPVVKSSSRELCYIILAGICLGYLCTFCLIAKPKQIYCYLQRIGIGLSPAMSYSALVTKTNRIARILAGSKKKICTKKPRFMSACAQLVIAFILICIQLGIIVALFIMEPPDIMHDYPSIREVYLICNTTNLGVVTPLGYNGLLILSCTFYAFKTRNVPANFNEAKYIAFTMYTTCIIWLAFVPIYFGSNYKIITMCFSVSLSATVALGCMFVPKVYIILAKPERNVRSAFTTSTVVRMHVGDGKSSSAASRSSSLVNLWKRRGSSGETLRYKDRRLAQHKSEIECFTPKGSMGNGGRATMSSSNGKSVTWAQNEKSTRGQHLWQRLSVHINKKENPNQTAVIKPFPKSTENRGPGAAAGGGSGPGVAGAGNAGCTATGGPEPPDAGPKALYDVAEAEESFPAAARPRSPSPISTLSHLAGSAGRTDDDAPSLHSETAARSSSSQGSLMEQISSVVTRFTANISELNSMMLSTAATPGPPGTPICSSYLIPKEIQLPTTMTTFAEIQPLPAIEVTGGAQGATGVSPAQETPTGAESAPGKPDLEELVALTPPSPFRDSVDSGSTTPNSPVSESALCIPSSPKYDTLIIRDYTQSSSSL

B1: GST alone (other)
chain: not shown
notes: Control for GST-Homer
Consider B1, for which the binding result was “no binding”.

For the origin of these results see patent US20040229274A1 (Johns Hopkins, published 2004).
